Experiment [1] has as its target T1, GST-SEPT6 (human) (UniProt Q14141).
T1 sequence: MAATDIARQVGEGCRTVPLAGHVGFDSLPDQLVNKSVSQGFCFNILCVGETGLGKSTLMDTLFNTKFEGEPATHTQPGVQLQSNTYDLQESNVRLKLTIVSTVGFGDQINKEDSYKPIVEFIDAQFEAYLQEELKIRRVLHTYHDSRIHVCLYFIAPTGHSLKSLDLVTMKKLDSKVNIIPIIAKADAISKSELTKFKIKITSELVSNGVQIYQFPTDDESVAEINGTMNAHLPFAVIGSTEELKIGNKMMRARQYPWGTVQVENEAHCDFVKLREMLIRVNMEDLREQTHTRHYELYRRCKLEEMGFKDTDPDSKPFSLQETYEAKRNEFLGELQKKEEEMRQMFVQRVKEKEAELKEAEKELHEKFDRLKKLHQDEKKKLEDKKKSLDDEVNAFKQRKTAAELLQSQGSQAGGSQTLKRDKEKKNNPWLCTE
Briefly: pull-down; co-purification of GST-SEPT6 with a second septin, both expressed together in E. coli; unpublished observations (Nakahira et al.).

Experiment [2] has as its target T2, human septin 8 (human) (UniProt Q92599).
T2 sequence: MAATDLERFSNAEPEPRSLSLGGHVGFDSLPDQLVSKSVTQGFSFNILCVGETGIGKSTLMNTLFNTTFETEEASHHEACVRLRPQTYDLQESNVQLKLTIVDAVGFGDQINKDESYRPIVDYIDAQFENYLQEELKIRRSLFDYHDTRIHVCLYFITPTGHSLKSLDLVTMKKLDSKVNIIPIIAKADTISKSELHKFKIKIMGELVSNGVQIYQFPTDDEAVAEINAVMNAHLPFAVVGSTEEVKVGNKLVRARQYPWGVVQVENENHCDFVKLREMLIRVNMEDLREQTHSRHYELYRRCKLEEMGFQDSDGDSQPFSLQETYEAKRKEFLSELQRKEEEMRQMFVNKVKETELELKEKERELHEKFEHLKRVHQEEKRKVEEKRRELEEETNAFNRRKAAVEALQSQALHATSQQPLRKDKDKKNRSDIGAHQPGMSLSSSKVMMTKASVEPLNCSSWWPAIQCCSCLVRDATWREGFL
Put plainly: two-hybrid; LexA-septin bait (modified pBTM116) in yeast L40 screened against human fetal brain and human leukocyte cDNA libraries (pACT2); minimal medium without Trp, Leu, His, with 5 mM 3-AT; every clone confirmed one-to-one with its bait by beta-galactosidase filter assay, empty bait vector as control.

Experiment [3] concerns the target T3, human septin 1 (human) (UniProt Q8WYJ6).
T3 sequence: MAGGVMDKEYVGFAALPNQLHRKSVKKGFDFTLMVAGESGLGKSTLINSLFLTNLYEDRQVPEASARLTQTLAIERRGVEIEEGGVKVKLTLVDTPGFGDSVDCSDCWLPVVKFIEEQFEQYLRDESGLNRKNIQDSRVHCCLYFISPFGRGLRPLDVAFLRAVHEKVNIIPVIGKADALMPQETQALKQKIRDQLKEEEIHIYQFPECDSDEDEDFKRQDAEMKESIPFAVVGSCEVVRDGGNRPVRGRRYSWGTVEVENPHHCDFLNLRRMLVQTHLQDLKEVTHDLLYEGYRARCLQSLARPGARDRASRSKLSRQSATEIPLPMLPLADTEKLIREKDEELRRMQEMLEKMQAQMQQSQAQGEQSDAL
Described as above.

Experiment [4] addresses T4, human septin 10 (human) (UniProt Q9P0V9).
T4 sequence: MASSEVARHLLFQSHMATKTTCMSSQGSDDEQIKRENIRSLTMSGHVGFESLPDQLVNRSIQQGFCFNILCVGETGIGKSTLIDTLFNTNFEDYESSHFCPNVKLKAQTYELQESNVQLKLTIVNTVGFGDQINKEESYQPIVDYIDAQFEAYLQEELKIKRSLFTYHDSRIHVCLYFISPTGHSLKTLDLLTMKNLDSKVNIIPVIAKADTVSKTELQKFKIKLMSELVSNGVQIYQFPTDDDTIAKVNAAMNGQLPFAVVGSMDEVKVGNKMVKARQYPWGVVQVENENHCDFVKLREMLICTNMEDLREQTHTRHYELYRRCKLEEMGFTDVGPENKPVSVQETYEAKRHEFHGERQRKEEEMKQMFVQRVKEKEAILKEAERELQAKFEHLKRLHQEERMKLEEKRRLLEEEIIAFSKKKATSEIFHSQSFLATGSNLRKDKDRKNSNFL
The experiment is described as above.

Experiment [5] has as its target T5, human septin 5 (human) (UniProt Q99719).
T5 sequence: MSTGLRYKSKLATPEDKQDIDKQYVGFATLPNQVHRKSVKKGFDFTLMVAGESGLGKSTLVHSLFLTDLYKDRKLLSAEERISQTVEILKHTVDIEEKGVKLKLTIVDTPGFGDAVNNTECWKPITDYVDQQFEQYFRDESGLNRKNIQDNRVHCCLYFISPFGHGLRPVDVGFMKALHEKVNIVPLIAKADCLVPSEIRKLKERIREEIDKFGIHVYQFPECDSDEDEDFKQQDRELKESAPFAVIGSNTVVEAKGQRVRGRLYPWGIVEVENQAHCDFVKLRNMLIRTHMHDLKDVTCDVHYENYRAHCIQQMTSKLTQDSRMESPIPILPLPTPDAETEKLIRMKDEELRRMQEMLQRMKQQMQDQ
Described as above.

Experiment [6] has as its target T6, human septin 6 (human) (UniProt Q14141).
T6 sequence: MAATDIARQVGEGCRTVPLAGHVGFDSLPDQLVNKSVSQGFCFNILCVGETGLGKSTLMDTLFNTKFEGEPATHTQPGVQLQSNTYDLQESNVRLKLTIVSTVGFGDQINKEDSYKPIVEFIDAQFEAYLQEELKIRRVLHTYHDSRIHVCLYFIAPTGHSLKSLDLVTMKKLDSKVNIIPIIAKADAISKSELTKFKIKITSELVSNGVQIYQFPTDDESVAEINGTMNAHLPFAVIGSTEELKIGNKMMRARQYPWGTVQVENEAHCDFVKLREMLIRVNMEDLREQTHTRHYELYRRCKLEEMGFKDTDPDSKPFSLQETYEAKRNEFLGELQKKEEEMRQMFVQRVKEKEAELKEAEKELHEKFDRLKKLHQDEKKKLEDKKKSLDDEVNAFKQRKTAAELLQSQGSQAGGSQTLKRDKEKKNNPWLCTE
Described as above.

Results are given in words; binding and its absence hold for the method and conditions named. For part of these data: In cells and extracts the contact can be indirect. Some entries that bind do so weakly or less than the wild type. For part of these data: Tags and fused reporters may be left off the sequences shown.

B1: septin 2 co-expressed with GST-SEPT6 in E. coli (protein, UniProt Q15019 1-361)
chain: MSKQQPTQFINPETPGYVGFANLPNQVHRKSVKKGFEFTLMVVGESGLGKSTLINSLFLTDLYPERVIPGAAEKIERTVQIEASTVEIEERGVKLRLTVVDTPGYGDAINCRDCFKTIISYIDEQFERYLHDESGLNRRHIIDNRVHCCFYFISPFGHGLKPLDVAFMKAIHNKVNIVPVIAKADTLTLKERERLKKRILDEIEEHNIKIYHLPDAESDEDEDFKEQTRLLKASIPFSVVGSNQLIEAKGKKVRGRLYPWGVVEVENPEHNDFLKLRTMLITHMQDLQEVTQDLHYENFRSERLKRGGRKVENEDMNKDQILLEKEAELRRMQEMIARMQAQMQMQMQGGDGDGGALGHHV
B1: the binding entry in experiment [1] is “binds”.

B2: human septin 2 (protein, UniProt Q15019-1 1-361)
chain: MSKQQPTQFINPETPGYVGFANLPNQVHRKSVKKGFEFTLMVVGESGLGKSTLINSLFLTDLYPERVIPGAAEKIERTVQIEASTVEIEERGVKLRLTVVDTPGYGDAINCRDCFKTIISYIDEQFERYLHDESGLNRRHIIDNRVHCCFYFISPFGHGLKPLDVAFMKAIHNKVNIVPVIAKADTLTLKERERLKKRILDEIEEHNIKIYHLPDAESDEDEDFKEQTRLLKASIPFSVVGSNQLIEAKGKKVRGRLYPWGVVEVENPEHNDFLKLRTMLITHMQDLQEVTQDLHYENFRSERLKRGGRKVENEDMNKDQILLEKEAELRRMQEMIARMQAQMQMQMQGGDGDGGALGHHV
Take B2: the binding result in experiment [2] was “binds”; in experiment [3], “binds”; in experiment [4], “no binding”; in experiment [5] it was “binds”; in experiment [6], “binds”.

B3: septin 7 co-expressed with GST-SEPT6 in E. coli (protein, UniProt Q16181 1-437)
chain: MSVSARSAAAEERSVNSSTMVAQQKNLEGYVGFANLPNQVYRKSVKRGFEFTLMVVGESGLGKSTLINSLFLTDLYSPEYPGPSHRIKKTVQVEQSKVLIKEGGVQLLLTIVDTPGFGDAVDNSNCWQPVIDYIDSKFEDYLNAESRVNRRQMPDNRVQCCLYFIAPSGHGLKPLDIEFMKRLHEKVNIIPLIAKADTLTPEECQQFKKQIMKEIQEHKIKIYEFPETDDEEENKLVKKIKDRLPLAVVGSNTIIEVNGKRVRGRQYPWGVAEVENGEHCDFTILRNMLIRTHMQDLKDVTNNVHYENYRSRKLAAVTYNGVDNNKNKGQLTKSPLAQMEEERREHVAKMKKMEMEMEQVFEMKVKEKVQKLKDSEAELQRRHEQMKKNLEAQHKELEEKRRQFEDEKANWEAQQRILEQQNSSRTLEKNKKKGKIF
B3: the binding result in experiment [1] is recorded as “binds”.

B4: human septin 1 (protein, UniProt Q8WYJ6-1 1-372)
chain: MAGGVMDKEYVGFAALPNQLHRKSVKKGFDFTLMVAGESGLGKSTLINSLFLTNLYEDRQVPEASARLTQTLAIERRGVEIEEGGVKVKLTLVDTPGFGDSVDCSDCWLPVVKFIEEQFEQYLRDESGLNRKNIQDSRVHCCLYFISPFGRGLRPLDVAFLRAVHEKVNIIPVIGKADALMPQETQALKQKIRDQLKEEEIHIYQFPECDSDEDEDFKRQDAEMKESIPFAVVGSCEVVRDGGNRPVRGRRYSWGTVEVENPHHCDFLNLRRMLVQTHLQDLKEVTHDLLYEGYRARCLQSLARPGARDRASRSKLSRQSATEIPLPMLPLADTEKLIREKDEELRRMQEMLEKMQAQMQQSQAQGEQSDAL
Consider B4, for which the binding result in experiment [2] is recorded as “binds”; in experiment [3], “binds”; in experiment [4] it was “no binding”; in experiment [6], “binds”.

B5: septin 1 co-expressed with GST-SEPT6 in E. coli (protein, UniProt Q8WYJ6 1-372)
chain: MAGGVMDKEYVGFAALPNQLHRKSVKKGFDFTLMVAGESGLGKSTLINSLFLTNLYEDRQVPEASARLTQTLAIERRGVEIEEGGVKVKLTLVDTPGFGDSVDCSDCWLPVVKFIEEQFEQYLRDESGLNRKNIQDSRVHCCLYFISPFGRGLRPLDVAFLRAVHEKVNIIPVIGKADALMPQETQALKQKIRDQLKEEEIHIYQFPECDSDEDEDFKRQDAEMKESIPFAVVGSCEVVRDGGNRPVRGRRYSWGTVEVENPHHCDFLNLRRMLVQTHLQDLKEVTHDLLYEGYRARCLQSLARPGARDRASRSKLSRQSATEIPLPMLPLADTEKLIREKDEELRRMQEMLEKMQAQMQQSQAQGEQSDAL
Regarding B5, in experiment [1], the binding entry was “binds”.

B6: SEPT5(39-369) (domain or fragment, UniProt Q99719 39-369)
chain: VKKGFDFTLMVAGESGLGKSTLVHSLFLTDLYKDRKLLSAEERISQTVEILKHTVDIEEKGVKLKLTIVDTPGFGDAVNNTECWKPITDYVDQQFEQYFRDESGLNRKNIQDNRVHCCLYFISPFGHGLRPVDVGFMKALHEKVNIVPLIAKADCLVPSEIRKLKERIREEIDKFGIHVYQFPECDSDEDEDFKQQDRELKESAPFAVIGSNTVVEAKGQRVRGRLYPWGIVEVENQAHCDFVKLRNMLIRTHMHDLKDVTCDVHYENYRAHCIQQMTSKLTQDSRMESPIPILPLPTPDAETEKLIRMKDEELRRMQEMLQRMKQQMQDQ
For the molecule B6, in experiment [6], the binding result is reported as “binds”.

B7: septin 5 co-expressed with GST-SEPT6 in E. coli (protein, UniProt Q99719 1-369)
chain: MSTGLRYKSKLATPEDKQDIDKQYVGFATLPNQVHRKSVKKGFDFTLMVAGESGLGKSTLVHSLFLTDLYKDRKLLSAEERISQTVEILKHTVDIEEKGVKLKLTIVDTPGFGDAVNNTECWKPITDYVDQQFEQYFRDESGLNRKNIQDNRVHCCLYFISPFGHGLRPVDVGFMKALHEKVNIVPLIAKADCLVPSEIRKLKERIREEIDKFGIHVYQFPECDSDEDEDFKQQDRELKESAPFAVIGSNTVVEAKGQRVRGRLYPWGIVEVENQAHCDFVKLRNMLIRTHMHDLKDVTCDVHYENYRAHCIQQMTSKLTQDSRMESPIPILPLPTPDAETEKLIRMKDEELRRMQEMLQRMKQQMQDQ
B7: the binding result in experiment [1] is given as “binds”.

B8: SEPT7(65-437) (domain or fragment, UniProt Q16181 65-437)
chain: TLINSLFLTDLYSPEYPGPSHRIKKTVQVEQSKVLIKEGGVQLLLTIVDTPGFGDAVDNSNCWQPVIDYIDSKFEDYLNAESRVNRRQMPDNRVQCCLYFIAPSGHGLKPLDIEFMKRLHEKVNIIPLIAKADTLTPEECQQFKKQIMKEIQEHKIKIYEFPETDDEEENKLVKKIKDRLPLAVVGSNTIIEVNGKRVRGRQYPWGVAEVENGEHCDFTILRNMLIRTHMQDLKDVTNNVHYENYRSRKLAAVTYNGVDNNKNKGQLTKSPLAQMEEERREHVAKMKKMEMEMEQVFEMKVKEKVQKLKDSEAELQRRHEQMKKNLEAQHKELEEKRRQFEDEKANWEAQQRILEQQNSSRTLEKNKKKGKIF
B8: in experiment [6], the binding result is “binds”.

Values taken from article PMC2970546.
